Measured values taken from publication PMC5700166.
The entries are a selection whose mix differs from that of the whole data set. The list includes weakly bound sequences.

Tests used:
Assay in all cases: protein-binding microarray (PBM)
Conditions in all cases: PBM: ~300 nM protein, 6 mM HEPES pH 7.8, 80 mM KCl, 0.5 mM EDTA, 0.5 mM EGTA, 6% glycerol, 35 ng/ul poly-dIdC, 1% milk, 1 h, room temperature; Ap Aiptasia and Nv Nematostella (sea anemones) / Co Capsaspora / Aq Amphimedon (sponge) / Dm Drosophila / Hu human; RHD is the Rel homology domain; high values mean tight binding; most listed sequences are background and not binding sites; double strand, one strand shown
GST-Ap-NF-kB RHD = target: T1, GST-Ap-NF-kB RHD (UniProt A0A913YAJ5)
T1 sequence: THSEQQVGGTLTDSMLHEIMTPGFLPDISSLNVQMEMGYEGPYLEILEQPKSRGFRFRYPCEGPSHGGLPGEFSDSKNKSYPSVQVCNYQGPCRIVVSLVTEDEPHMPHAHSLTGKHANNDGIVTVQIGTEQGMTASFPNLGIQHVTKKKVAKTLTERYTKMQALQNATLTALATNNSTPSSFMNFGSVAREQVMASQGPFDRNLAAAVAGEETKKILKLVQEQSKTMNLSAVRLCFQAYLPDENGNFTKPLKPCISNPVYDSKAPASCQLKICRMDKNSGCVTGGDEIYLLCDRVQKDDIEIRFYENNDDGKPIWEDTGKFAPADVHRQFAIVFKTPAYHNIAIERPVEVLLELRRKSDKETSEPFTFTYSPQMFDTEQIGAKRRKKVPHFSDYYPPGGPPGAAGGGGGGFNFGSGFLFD

GST-Co-NF-kB = target: T2, GST-Co-NF-kB (UniProt F1ARL5)
T2 sequence: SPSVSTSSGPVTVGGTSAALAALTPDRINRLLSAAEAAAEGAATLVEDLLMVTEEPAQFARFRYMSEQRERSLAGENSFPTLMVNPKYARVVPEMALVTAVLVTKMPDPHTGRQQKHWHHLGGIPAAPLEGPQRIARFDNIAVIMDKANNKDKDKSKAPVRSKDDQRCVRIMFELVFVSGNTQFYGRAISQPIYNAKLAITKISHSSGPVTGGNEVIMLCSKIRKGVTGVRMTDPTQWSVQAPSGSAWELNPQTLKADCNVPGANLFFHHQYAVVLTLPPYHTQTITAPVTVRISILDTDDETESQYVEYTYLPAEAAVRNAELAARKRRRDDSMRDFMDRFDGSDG

GST-Dm-Relish = target: T3, GST-Dm-Relish (UniProt Q94527)
T3 sequence: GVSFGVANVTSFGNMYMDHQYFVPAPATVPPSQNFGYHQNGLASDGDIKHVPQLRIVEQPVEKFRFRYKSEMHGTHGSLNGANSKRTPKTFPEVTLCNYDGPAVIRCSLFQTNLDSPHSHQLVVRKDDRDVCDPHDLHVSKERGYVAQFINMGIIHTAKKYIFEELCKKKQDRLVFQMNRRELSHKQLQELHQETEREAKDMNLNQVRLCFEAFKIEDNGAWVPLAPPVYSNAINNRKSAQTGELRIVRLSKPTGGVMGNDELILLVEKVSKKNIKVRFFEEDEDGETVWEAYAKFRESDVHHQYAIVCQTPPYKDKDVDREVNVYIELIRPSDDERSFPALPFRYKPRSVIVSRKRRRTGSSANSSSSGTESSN

GST-Aq-NF-kB = target: T4, GST-Aq-NF-kB (UniProt A9Y5G7)
T4 sequence: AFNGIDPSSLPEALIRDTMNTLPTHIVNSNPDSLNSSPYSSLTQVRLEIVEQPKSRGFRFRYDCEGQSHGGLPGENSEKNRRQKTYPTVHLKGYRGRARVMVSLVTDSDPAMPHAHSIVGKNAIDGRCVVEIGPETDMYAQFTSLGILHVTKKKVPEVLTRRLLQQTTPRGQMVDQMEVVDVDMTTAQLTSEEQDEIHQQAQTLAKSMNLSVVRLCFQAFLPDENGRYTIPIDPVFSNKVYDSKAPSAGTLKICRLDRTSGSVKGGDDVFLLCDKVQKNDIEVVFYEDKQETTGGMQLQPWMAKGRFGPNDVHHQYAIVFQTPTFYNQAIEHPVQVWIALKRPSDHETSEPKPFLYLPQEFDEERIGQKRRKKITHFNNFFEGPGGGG

| Sequence | binding signal (GST-Ap-NF-kB RHD) | binding signal (GST-Co-NF-kB) | binding signal (GST-Dm-Relish) | binding signal (GST-Aq-NF-kB) |
| --- | --- | --- | --- | --- |
| CCGATTAACATCAAAGAGGAGTCTGATGTTAATCGGGTCTTGATTCGCTTGACGCTGCTG | -0.112 z-score | 0.441 z-score | -0.611 z-score | -0.517 z-score |
| CCGATTAACATCAGTTCCCCCCATGATGTTAATCGGGTCTTGATTCGCTTGACGCTGCTG | 6.36 z-score | 8.97 z-score | 3.62 z-score | 3.91 z-score |
| CCGATTAACATCACAATTTCCCCTGATGTTAATCGGGTCTTGATTCGCTTGACGCTGCTG | 8.29 z-score | 8.61 z-score | 5.96 z-score | 6.69 z-score |
| CCGATTAACATCAGGAAATACCCTGATGTTAATCGGGTCTTGATTCGCTTGACGCTGCTG | 6.05 z-score | 1.14 z-score | – | 9.37 z-score |
| CCGATTAACATCATTCCGGGAAATGATGTTAATCGGGTCTTGATTCGCTTGACGCTGCTG | 0.945 z-score | – | 0.735 z-score | 1.95 z-score |
| CCGATTAACATCAGTTTTCCCCATGATGTTAATCGGGTCTTGATTCGCTTGACGCTGCTG | 6.49 z-score | 9.45 z-score | – | 4.82 z-score |
| CCGATTAACATCAGCATTCCCAATGATGTTAATCGGGTCTTGATTCGCTTGACGCTGCTG | 0.584 z-score | 1.08 z-score | 0.39 z-score | 0.985 z-score |
| CCGATTAACATCAGGGGAAGGACTGATGTTAATCGGGTCTTGATTCGCTTGACGCTGCTG | 4.32 z-score | 4.12 z-score | 8.23 z-score | 5.22 z-score |
| CCGATTAACATCAGGAAACTACCTGATGTTAATCGGGTCTTGATTCGCTTGACGCTGCTG | 1.63 z-score | -0.297 z-score | – | 4.72 z-score |
| CCGATTAACATCACGGGAAATTCTGATGTTAATCGGGTCTTGATTCGCTTGACGCTGCTG | 5.1 z-score | 5.06 z-score | – | 6.47 z-score |
| CCGATTAACATCAGGAAATTGCCTGATGTTAATCGGGTCTTGATTCGCTTGACGCTGCTG | -0.349 z-score | -0.11 z-score | -0.155 z-score | 0.153 z-score |
